From publication PMC9274187
No constants are given. Whether binding was seen depends on the method and setting. In cells and extracts the contact can be indirect. Some entries that bind do so weakly or less than the wild type. For part of these data: Tags and fused reporters may be left off the sequences shown. Blank lines part the entries; values can stand above or below the substance they belong to.

Sequences of proteins named here, by UniProt entry; tags and fusion partners are left off. A change or cut given only in a name is not applied to a line headed by its entry. Residues count along the entry.
UniProt Q9P289: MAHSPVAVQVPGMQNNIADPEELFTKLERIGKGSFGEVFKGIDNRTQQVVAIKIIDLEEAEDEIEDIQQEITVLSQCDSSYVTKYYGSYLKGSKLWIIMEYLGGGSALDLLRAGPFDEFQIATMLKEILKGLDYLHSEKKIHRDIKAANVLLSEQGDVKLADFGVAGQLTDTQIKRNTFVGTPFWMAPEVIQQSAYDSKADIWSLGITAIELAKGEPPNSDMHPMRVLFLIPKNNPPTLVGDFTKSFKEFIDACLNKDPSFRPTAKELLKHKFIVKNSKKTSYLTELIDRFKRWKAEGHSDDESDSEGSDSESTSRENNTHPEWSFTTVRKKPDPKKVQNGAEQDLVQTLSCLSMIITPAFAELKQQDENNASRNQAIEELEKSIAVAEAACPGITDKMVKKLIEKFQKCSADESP
Flag-MST4 amino acids 1-297 (N-terminal kinase domain): residues 1-297 of Q9P289
Flag-MST4 amino acids 297-416 (C-terminal regulatory domain): residues 297-416 of Q9P289
UniProt Q7Z434: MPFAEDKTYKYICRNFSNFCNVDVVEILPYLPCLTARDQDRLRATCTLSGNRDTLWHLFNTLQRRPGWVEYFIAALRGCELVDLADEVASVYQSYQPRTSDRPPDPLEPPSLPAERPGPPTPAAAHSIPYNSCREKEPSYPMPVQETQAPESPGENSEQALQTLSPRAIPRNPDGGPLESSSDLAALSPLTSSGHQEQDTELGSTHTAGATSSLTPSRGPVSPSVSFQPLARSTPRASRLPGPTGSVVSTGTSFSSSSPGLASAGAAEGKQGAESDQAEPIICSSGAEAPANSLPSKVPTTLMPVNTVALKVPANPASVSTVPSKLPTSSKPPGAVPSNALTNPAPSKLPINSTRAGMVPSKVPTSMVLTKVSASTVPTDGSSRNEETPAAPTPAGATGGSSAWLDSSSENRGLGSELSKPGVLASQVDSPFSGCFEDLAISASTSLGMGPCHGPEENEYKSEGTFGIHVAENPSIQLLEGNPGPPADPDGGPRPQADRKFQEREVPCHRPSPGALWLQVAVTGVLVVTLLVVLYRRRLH
HA-MAVS 360-540: residues 360-540 of Q7Z434
UniProt Q9HCE7: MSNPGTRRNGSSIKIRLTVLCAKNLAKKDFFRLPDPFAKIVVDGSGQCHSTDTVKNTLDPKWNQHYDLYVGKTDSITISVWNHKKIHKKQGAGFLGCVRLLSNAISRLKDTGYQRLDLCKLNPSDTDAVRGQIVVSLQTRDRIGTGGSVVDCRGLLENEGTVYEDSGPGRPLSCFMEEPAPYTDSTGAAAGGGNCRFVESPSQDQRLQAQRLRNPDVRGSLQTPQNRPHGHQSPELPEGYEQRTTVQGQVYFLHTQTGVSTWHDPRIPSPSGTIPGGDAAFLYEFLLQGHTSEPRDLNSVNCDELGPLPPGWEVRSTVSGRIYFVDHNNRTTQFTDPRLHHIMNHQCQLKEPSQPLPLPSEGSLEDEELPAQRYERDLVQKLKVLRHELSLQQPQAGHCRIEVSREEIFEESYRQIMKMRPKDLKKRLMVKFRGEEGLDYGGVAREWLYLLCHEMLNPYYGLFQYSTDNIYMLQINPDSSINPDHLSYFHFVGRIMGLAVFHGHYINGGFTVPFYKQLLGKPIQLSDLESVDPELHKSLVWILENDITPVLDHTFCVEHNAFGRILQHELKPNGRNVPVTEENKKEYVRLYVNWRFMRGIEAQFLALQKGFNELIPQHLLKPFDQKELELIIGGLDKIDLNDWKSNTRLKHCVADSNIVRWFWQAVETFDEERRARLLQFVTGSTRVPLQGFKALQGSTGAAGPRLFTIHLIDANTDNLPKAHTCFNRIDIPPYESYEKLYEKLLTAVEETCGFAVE

What was measured:
[1] = target: Flag-MST4, full length (human) (UniProt Q9P289); experiment: co-IP; 293T cells co-transfected with both tagged proteins for 24 h; lysis in 1% NP40, 150 mM NaCl, 10 mM Tris-HCl pH 8.0, 10% glycerol, 1 mM EDTA; anti-Flag sepharose at 4 °C overnight; five washes with 300 mM NaCl; immunoblot
Flag-IKKε (human) = target: T1, Flag-IKKε (human) (UniProt Q14164); experiment: co-IP; competition format: 293T cells co-transfected for 24 h with a Flag-tagged bait, a tagged partner and a third protein (increasing amounts of Myc-MST4; or Myc-TRAF3 and Myc-MST4 together); anti-Flag beads; immunoblot
T1 sequence: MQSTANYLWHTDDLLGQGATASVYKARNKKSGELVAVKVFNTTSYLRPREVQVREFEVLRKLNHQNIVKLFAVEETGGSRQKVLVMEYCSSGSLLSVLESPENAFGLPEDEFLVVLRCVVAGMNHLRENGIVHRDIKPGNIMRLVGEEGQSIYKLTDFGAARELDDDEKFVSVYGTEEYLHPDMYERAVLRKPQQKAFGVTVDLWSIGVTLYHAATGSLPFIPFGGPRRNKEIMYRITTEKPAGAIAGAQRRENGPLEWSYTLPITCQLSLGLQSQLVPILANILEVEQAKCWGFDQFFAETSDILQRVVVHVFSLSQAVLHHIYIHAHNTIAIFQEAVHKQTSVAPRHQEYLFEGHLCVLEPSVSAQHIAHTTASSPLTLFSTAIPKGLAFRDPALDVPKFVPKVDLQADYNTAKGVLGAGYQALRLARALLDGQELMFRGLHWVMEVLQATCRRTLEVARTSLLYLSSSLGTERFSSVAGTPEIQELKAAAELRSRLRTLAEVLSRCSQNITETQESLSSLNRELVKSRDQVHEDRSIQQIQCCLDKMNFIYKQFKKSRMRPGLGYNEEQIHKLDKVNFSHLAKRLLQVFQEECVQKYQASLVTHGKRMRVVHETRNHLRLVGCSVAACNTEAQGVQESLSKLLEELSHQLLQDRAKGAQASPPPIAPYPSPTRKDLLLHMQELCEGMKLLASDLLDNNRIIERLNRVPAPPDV

[2] = target: Flag-MST4 amino acids 297-416 (C-terminal regulatory domain) (human) (UniProt Q9P289); experiment: co-IP; 293T cells co-transfected with both tagged proteins for 24 h; lysis in 1% NP40, 150 mM NaCl, 10 mM Tris-HCl pH 8.0, 10% glycerol, 1 mM EDTA; anti-Flag sepharose at 4 °C overnight; five washes with 300 mM NaCl; immunoblot
[3] = target: Flag-MST4 amino acids 1-297 (N-terminal kinase domain) (human) (UniProt Q9P289); experiment: as above
[4] = target: Flag-MAVS (mitochondrial antiviral signaling protein) (UniProt Q7Z434); experiment: co-IP; competition format: 293T cells co-transfected for 24 h with a Flag-tagged bait, a tagged partner and a third protein (increasing amounts of Myc-MST4; or Myc-TRAF3 and Myc-MST4 together); anti-Flag beads; immunoblot
Myc-MAVS = Myc-MAVS (UniProt Q7Z434); experiment: as above
HA-MAVS 360-540 = HA-MAVS 360-540 (UniProt Q7Z434); experiment: as above
[5] = target: Flag-MAVS (mitochondrial antiviral signaling protein) (UniProt Q7Z434); experiment: co-IP; 293T cells co-transfected with both tagged proteins for 24 h; lysis in 1% NP40, 150 mM NaCl, 10 mM Tris-HCl pH 8.0, 10% glycerol, 1 mM EDTA; anti-Flag sepharose at 4 °C overnight; five washes with 300 mM NaCl; immunoblot
[6] = target: T2, Flag-MDA5 (melanoma differentiation-associated gene 5) (UniProt Q9BYX4); experiment: as above
T2 sequence: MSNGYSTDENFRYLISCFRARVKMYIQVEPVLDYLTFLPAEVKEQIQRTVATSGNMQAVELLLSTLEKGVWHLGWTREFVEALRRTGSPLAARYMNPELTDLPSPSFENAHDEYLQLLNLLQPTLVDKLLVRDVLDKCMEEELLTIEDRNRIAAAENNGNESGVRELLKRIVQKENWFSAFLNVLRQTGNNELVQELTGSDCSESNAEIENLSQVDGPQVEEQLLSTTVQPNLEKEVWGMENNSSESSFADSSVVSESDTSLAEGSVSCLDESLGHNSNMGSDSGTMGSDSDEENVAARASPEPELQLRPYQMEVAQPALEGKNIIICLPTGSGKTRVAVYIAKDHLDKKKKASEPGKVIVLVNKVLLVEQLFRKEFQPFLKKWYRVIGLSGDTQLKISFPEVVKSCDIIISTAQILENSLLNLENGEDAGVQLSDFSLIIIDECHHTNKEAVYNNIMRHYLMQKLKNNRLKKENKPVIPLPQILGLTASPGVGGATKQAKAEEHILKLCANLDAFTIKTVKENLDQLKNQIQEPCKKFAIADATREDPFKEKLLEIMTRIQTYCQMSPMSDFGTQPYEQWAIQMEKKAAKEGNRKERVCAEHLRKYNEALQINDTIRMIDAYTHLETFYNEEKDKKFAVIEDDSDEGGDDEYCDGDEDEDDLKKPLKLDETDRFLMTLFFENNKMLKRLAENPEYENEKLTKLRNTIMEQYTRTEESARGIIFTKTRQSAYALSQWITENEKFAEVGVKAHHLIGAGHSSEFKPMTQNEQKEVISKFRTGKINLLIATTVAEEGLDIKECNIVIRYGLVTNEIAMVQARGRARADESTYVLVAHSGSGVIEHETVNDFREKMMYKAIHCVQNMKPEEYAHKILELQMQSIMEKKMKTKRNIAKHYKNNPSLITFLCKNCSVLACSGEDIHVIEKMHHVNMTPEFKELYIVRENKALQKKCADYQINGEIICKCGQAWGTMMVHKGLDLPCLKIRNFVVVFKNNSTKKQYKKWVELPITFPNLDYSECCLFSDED

[7] = target: T3, Flag-RIG-I (retinoic acid-inducible gene I) (UniProt O95786); experiment: as above
T3 sequence: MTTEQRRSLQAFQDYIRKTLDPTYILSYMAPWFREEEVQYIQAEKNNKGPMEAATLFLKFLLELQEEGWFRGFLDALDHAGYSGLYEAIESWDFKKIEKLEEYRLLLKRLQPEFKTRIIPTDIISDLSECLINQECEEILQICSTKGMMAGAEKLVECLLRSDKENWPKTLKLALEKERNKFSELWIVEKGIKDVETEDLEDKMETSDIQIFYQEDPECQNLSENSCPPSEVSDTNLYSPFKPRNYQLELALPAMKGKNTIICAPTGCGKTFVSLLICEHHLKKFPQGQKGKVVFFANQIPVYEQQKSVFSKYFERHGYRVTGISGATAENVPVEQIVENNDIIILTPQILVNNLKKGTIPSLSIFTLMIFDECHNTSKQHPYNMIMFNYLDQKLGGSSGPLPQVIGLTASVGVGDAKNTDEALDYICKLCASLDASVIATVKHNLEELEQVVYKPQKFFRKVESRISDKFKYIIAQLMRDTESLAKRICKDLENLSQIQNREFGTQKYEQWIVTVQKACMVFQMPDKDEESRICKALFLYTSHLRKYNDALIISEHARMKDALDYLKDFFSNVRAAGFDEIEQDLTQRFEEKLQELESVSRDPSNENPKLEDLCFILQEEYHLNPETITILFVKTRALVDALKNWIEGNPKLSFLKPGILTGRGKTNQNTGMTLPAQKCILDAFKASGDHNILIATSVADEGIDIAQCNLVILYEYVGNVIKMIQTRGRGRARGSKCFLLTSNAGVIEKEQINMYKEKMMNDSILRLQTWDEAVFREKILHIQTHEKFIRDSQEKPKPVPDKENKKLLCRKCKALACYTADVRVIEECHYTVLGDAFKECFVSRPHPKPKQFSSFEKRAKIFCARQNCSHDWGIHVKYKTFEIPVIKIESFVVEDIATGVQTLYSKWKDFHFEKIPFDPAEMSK

[8] = target: endogenous MST4 (human (endogenous in HEK293T)) (UniProt Q9P289); experiment: co-IP; endogenous proteins; 293T cells (for TRAF3: 293T-sh-Control and 293T-sh-MST4) infected with SeV for 8 h; immunoprecipitation with anti-MST4 or anti-TRAF3 antibody or control rabbit IgG, Protein A/G PLUS-Agarose; immunoblot
[9] = target: Flag-Smurf1 (E3 ubiquitin ligase Smurf1) (UniProt Q9HCE7); experiment: co-IP; 293T cells transfected with Flag-Smurf1 with or without Myc-MST4 for 24 h; anti-Flag beads; MAVS (no MAVS plasmid named) detected by immunoblot

binding [1]: binds
Substance: HA-MAVS, full length (from UniProt Q7Z434 1-540)

binding (Flag-IKKε (human)): binds
binding [2]: no binding
binding [3]: binds
Substance: Myc-MAVS (from UniProt Q7Z434 1-540)

binding [4]: binds
binding (Myc-MAVS): binds
binding (HA-MAVS 360-540): binds
binding [5]: binds
binding [6]: no binding
binding [7]: no binding
Substance: Myc-MST4 (mammalian sterile 20-like kinase 4) (from UniProt Q9P289 1-416) (enzyme)

binding [8]: binds
binding [9]: binds
Substance: endogenous MAVS (from UniProt Q7Z434 1-540)
